# The whole screen tested about 150,000 compounds, of which about 540 (0.36%) showed an effect of 50% or more. Some of the results follow.
# Tested on: Plasmodium falciparum
# Experiment: Primary screen in NF54 nanoGlo assay, in single point, at 2uM, 72h; a lower Z score goes with more inhibition
# Format: functional, Erythrocyte
# Conditions: timepoint 72 hour
Compound,% Inhibition [%],Z score
CCCO[C@H]1CCCN(c2nc(-c3cccnc3)nc3c2CNC3)C1,2,-0.3
CC(=O)Oc1c(-c2ccc(NC(=O)c3ccccc3Cl)cc2)c(CC(C)C)nn1-c1ccc(F)cc1,-4,0.51
COc1ccc(-c2cnc(C(=O)N3CCCc4ccccc43)o2)cc1,8,-1.06
Clc1cccc(Cc2nc([C@@H]3COCCN3)no2)c1,-9,1.32
Cc1ccccc1N1CC[C@H](CNC(=O)Cn2ccccc2=O)C1,-1,0.15
COc1ccc(S(=O)(=O)N2CCOCC2)cc1NC(=O)CN1CCC[C@H]1c1cccs1,-11,1.78
O=C(Nc1ccc2c(c1)N(C(=O)c1ccccc1)CCC2)c1ccccc1,-15,1.48
NC(=O)c1ccccc1NC(=O)[C@@H]1COCC(=O)N1Cc1ccccc1,-7,1.35
CCc1[nH]nc(-c2cccc(F)c2)c1NC(=O)c1ccc2c(c1)OCO2,-10,1.5
CCc1ccc(S(=O)(=O)N2CCn3c(nnc3[C@H]3CCN(C(C)C)C3)C2)cc1,31,-0.95
CN1C(=O)c2cccnc2O[C@H]2CN(C(=O)COc3ccccc3)C[C@H]21,-3,0.45
CC1CC(C)CN(S(=O)(=O)NCC2CCCS2(=O)=O)C1 (stereo unspecified),-7,0.88
Cc1cc(S(N)(=O)=O)c(Cl)cc1N1CCOCC1,1,-0.07
CC[C@H](C)[C@H](NC(=O)c1n[nH]c2c1CCC2)c1nc2ccccc2[nH]1,-8,0.97
CC1(C)CCN(C(=O)Nc2ccc(CCS(C)(=O)=O)cc2)CC1,28,-3.19
Cc1cnc(C(=O)N2CCC(N3C[C@H](Oc4ccccc4)[C@@H]3c3ccncc3)CC2)cn1,2,-0.24
CCn1cc(CN(C)Cc2cccc3cnccc23)cc1C#N,-10,0.96
CC(=O)Cn1nc(C)c(-c2cnc3ccccc3n2)c1C,-4,0.82
CCOC(=O)[C@@]1(NC(C)=O)Cc2ccccc2NC1=O,0,0
O=C(CCC1CCC(C2OCCO2)O1)N1CC2CCC1C(CO)C2 (stereo unspecified),-4,0.9
CCOc1cc(C(F)(F)F)cc(NC(C)=O)n1,-1,0.13

Compound,% Inhibition [%],Z score
CC(C)(C)OC(=O)NCCN(CCO)C(=O)Cc1cc(Cl)ccc1Cl,-1,0.09
COc1ccc([C@@H](C)CN(C)CCCO)cc1,-14,1.69
CC(CCNC(=O)N(C)C(C)C(C)S(C)(=O)=O)c1ccccc1 (stereo unspecified),-11,1.09
Cc1nnc(CN(C)Cc2ccc(Br)o2)o1,-9,0.88
Cc1sc(-c2nc(-c3cccc(F)c3)no2)cc1S(=O)(=O)NCCN1CCc2ccccc2C1,-10,1.16
O=C(NC(c1ccccc1)c1ccccc1)C1CCN(S(=O)(=O)Cc2ccc(Cl)cc2)CC1,4,-0.8
Cc1cccc(CN2CC=C(C(=O)NCc3ccc(N4CCOCC4)cc3)CC2)c1,-6,0.9
O=C(CNC(=O)c1ccc(C(F)(F)F)cc1)Nc1cnc2c(c1)COCC2,34,-4.64
O=C(NCc1cn(CC(=O)N2CCOCC2)nn1)Nc1ccc(Cl)cc1,0,0.04
CN(C)c1nc(N(C)C[C@H]2CCCN2C)nc2ccccc12,-1,0.1
c1nnc(CN2CCn3c(CC4CC4)nnc3C2)s1,-11,1.26
CCOC(=O)c1cnn2c(N)c(C(=O)Nc3cccc(C(F)(F)F)c3)nnc12,7,-1.06
CCCN(CC1CC1)C(=O)c1[nH]c2c(F)cccc2c1C,-18,1.59
O=C(CCc1ccncc1)N[C@H]1C[C@H](c2nnc(CO)n2C2CC2)C1,3,-0.39
COCC(=O)N1CCN(Cc2cc(C)cc(C)c2)C(=O)C1,8,-1.03
C[C@H](NC(=O)C(C)(C)C)C(=O)OCC(=O)Nc1cc(F)ccc1F,-10,1.44
CCc1nc(NCCc2ccnn2C)ncc1C,1,-0.15
O=C(Cc1csc2ccccc12)N1CCN(C(=O)NC2CCCC2)CC1,-7,1.1
Nc1nc2[nH]c(-c3ccc(Br)cc3)nc2c(=O)[nH]1,-4,0.51
CC(=O)c1nn(-c2cccc(C)c2)c(-c2ccco2)c1C#N,1,-0.17
FC(F)(F)Oc1ccccc1[C@]1(F)CCNC1,-2,0.24

Compound,% Inhibition [%],Z score
CN1CCC[C@H](CN(C)c2ccnc(N(C)C)n2)C1,-4,0.52
COc1cc(OC)c(NC(=O)N2CCCCC[C@H]2c2ccc(C)cc2)cc1Cl,-1,0.21
COc1ccc(CN(C(C)=O)C(C)C)cc1OS(=O)(=O)C(C)C,-1,0.17
CC[C@H](NS(=O)(=O)N1CCCC1)c1nccs1,3,-0.49
NC(=O)c1cn(C2CCN(C(=O)NCc3ccc(Cl)s3)CC2)nn1,-12,1.19
O=C1C[C@H](c2nc3cc(Cl)ccc3o2)CN1c1ccccc1,12,-1.74
CC[C@H](O)C(=O)N1CCC2(CCC(=O)N(C3CCOCC3)C2)CC1,1,-0.19
Cc1c(C(=O)N2CCC[C@H]2C(=O)N2CCCCC2)[nH]c2c(F)cccc12,-3,0.6
Cc1ccc(S(=O)(=O)N2CC[C@H](CO)[C@H](NC(=O)c3cccnc3)C2)cc1,-10,1.29
COc1ccc(-c2nc(NCc3ccccc3CN3CCCCC3)[nH]c(=O)c2C#N)cc1,-1,0.24
c1cnc2nc(N3CCOCC3)ccc2c1,-7,0.79
CCCO[C@H]1CCCN(c2cc(CCN)nc(C)n2)C1,-1,0.12
COc1ccc(N2CCN(C(=O)c3c(C4CC4)n(Cc4cccs4)c(C)cc3=O)CC2)cc1,11,-1.49
O=C(O)C[C@@H]1CCN(C(=O)c2ccccc2)C[C@@H]1CC1=NCCc2cc(F)ccc21,12,-1.38
COc1ccccc1N(Cc1nnnn1C1CC1)S(=O)(=O)c1ccc(F)cc1,-9,1.73
Cc1nc(C(C)C)sc1C(=O)N1Cc2ccccc2C1,-17,2.41
O=C(Nc1ccccc1)c1ccc(N2C(=O)CCS2(=O)=O)cc1Cl,-7,0.85
O=C(C1CC2CCC1O2)N(Cc1ccco1)c1cccc(F)c1 (stereo unspecified),-6,1.19
CC1=NS(=O)(=O)N(CCc2ccccc2)C=C1C(=O)NCCc1ccc(S(N)(=O)=O)cc1,-15,2.93
O=C1[C@@H]2CC[C@@H](c3ccccc3)N2C(=O)N1c1ccc(-n2cccn2)nc1,-2,0.18
COC(=O)c1ccc(NC(=O)C(C)(C)NC(=O)C(F)(F)F)cn1,1,-0.09

Compound,% Inhibition [%],Z score
O=C(c1nn(-c2ccccn2)c2nccc(-c3cccs3)c12)N1CCCC1,-7,0.92
CN(Cc1ccccn1)C(=O)[C@H]1CCN(Cc2ccccc2)C1,11,-1.29
CN(C(=O)Nc1nnc(C2CC2)s1)C1CC1,12,-1.58
N#Cc1ccc(S(=O)(=O)CCn2cnc3ccccc3c2=O)cc1,-19,3.02
CN(Cc1ccccc1)Cc1c(N)n(C)c(=O)[nH]c1=O,-11,1.49
CO[C@H]1CCN(c2ccc(NC(=O)Nc3ccc4c(c3)OCO4)cc2)C1,-17,2.24
O=C(Nc1cccc(-c2ccc3c(c2)OCCO3)n1)[C@@H]1CCCO1,-5,0.97
O=C(c1ccc2noc(-c3ccc(Cl)cc3)c2c1)N1CCN(Cc2ccccc2)CC1,8,-1.17
O=C(O)CCc1cc2n(n1)CCCN(Cc1ccc3[nH]ccc3c1)C2,-15,1.85
CCOc1ccc(NC(=O)[C@H]2CCOC2)cc1,-17,2.36
COc1cc(NC(=O)N2CCC[C@@H]2CN2CCCC2)ncn1,-13,1.65
CN(C)C1(CNc2nc3c(c(=O)[nH]2)Cc2ccccc2OC3)CCOCC1,-10,1.78
NCCOc1ccc(CC(=O)N[C@@H]2COC3(CCCCC3)C2)cc1,1,-0.11
Cc1cnc(-n2ncc(C(=O)N3CC[C@H](N(C)C)C3)c2C(C)C)nc1-c1ccc(F)cc1,12,-1.57
O=C([C@H]1CCOC1)N1CCC(Oc2ccc(F)cc2)CC1,-6,1.11
CCCCn1nccc1NC(=O)N1CCC2(CC1)C(=O)N(C)c1ccccc12,-4,0.67
CC1CC1C(NS(=O)(=O)c1cnnn1C)c1ccc(Cl)cc1 (stereo unspecified),-9,1.03
CC(C)CNC(=O)[C@@H]1COC2(CCN(C(=O)c3ccc(Cl)c(Cl)c3)CC2)N1C(=O)c1ccco1,2,-0.27
Cc1ccc(CCC(=O)NC[C@H]2CCC[C@@H]2O)s1,-2,0.28
COc1cc(Br)cc(NC(=O)N2CC[S+]([O-])CCC2C)c1 (stereo unspecified),-11,1.68

# Source: ChEMBL document CHEMBL4888484, “Replenishing the malaria drug discovery pipeline: Screening and hit evaluation of the MMV Hit Generation Library 1 (HGL1) against asexual blood stage Plasmodium falciparum ,using a nano luciferase reporter read-out” (2022)
